Measurements published in the supplement of paper PMC4967469.
By IC50 is meant the dose at which the fit gives 50% viability; a fit beyond the top or the lowest dose is shown as a bound at that dose. The AUC spans the tested range (256-fold, ending at the top dose) of the same fit: 1 means no effect, lower means more sensitive. For part of these data: The top dose, if marked as inferred, is not printed in the source and was worked back from the curve model.

What was measured:
Test in all cases: Viability of human cancer cell lines after 72 h of drug (GDSC screen)
[1] = compound: CCc1cncnc1N1CCN(Cc2nc3ccc(C(F)(F)F)cc3[nH]2)CC1 [PF-4708671]; settings: top dose 10 µM; top dose inferred
Protocol: (§1)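 Human cancer cell lines in 384-well plates, medium with 10% serum, drug for 72 h over a 256-fold dose range (nine 2-fold or five 4-fold steps up to the top dose). Adherent lines were fixed and stained with the nucleic acid dye Syto60, suspension lines read with resazurin; signal relative to control wells, capped at 0 and 100%. One two-parameter sigmoid per drug and line, fitted in a mixed model over all curves with the slope shared within a line.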

[2] = compound: CCNC(=O)C[C@@H]1N=C(c2ccc(Cl)cc2)c2cc(OC)ccc2-n2c(C)nnc21 [I-BET-762]; settings: top dose 20 µM; top dose inferred
Protocol: as §1

[3] = compound: COc1cc2nccc(Oc3ccc(NC(=O)Nc4cc(C)on4)c(Cl)c3)c2cc1OC [AV-951]; settings: top dose 0.128 µM; top dose inferred
Protocol: as §1

[4] = compound: CCN1CCN(Cc2ccc(NC(=O)c3ccc(C)c(/C=C/c4cnc5[nH]ccc5c4OC)c3)cc2C(F)(F)F)CC1 [HG-6-64-1]; settings: top dose 5.12 µM; top dose inferred
Protocol: as §1

[5] = compound: Nc1ccccc1NC(=O)c1ccc(CNC(=O)OCc2cccnc2)cc1 [MS-275]; settings: top dose 5 µM; top dose inferred
Protocol: as §1

[6] = compound: O=C(NC(COc1ccc2[nH]c(=O)[nH]c2c1)c1ccccc1)c1cccn(Cc2ccc(F)c(F)c2)c1=O [KIN001-244]; settings: top dose 20 µM; top dose inferred
Protocol: as §1

[7] = compound: CC(=O)Nc1cccc(-n2c(=O)n(C3CC3)c(=O)c3c(Nc4ccc(I)cc4F)n(C)c(=O)c(C)c32)c1 [Trametinib]; settings: top dose 1 µM
Protocol: as §1

Row | Cell Line | AUC [1] | IC50 [1] [µM] | AUC [2] | IC50 [2] [µM] | AUC [3] | IC50 [3] [µM] | AUC [4] | IC50 [4] [µM] | AUC [5] | IC50 [5] [µM] | AUC [6] | IC50 [6] [µM] | AUC [7] | IC50 [7] [µM]
1 | COLO-684 (endometrium, suspension) | 0.982 | > 10 | 0.906 | > 20 | 0.971 | > 0.128 | 0.906 | > 5.12 | 0.886 | > 5 | 0.793 | 10.4 | 0.977 | > 1
2 | COLO-800 (melanoma, adherent) | 0.987 | > 10 | 0.945 | > 20 | 0.985 | > 0.128 | 0.985 | > 5.12 | 0.963 | > 5 | 0.956 | > 20 | 0.962 | > 1
3 | COLO-829 (melanoma, adherent) | 0.934 | > 10 | 0.91 | > 20 | 0.97 | > 0.128 | 0.461 | 0.239 | 0.716 | 1.73 | 0.821 | 19.8 | 0.393 | 0.0277
4 | COR-L88 (small cell lung carcinoma, adherent) | 0.928 | > 10 | 0.958 | > 20 | 0.986 | > 0.128 | 0.926 | > 5.12 | 0.449 | 0.221 | 0.92 | > 20 | 0.982 | > 1
5 | COR-L95 (small cell lung carcinoma, adherent) | 0.958 | > 10 | 0.926 | > 20 | 0.978 | > 0.128 | 0.982 | > 5.12 | 0.73 | 1.59 | 0.899 | > 20 | 0.984 | > 1
6 | COR-L279 (small cell lung carcinoma, suspension) | 0.961 | > 10 | 0.756 | 6.16 | 0.989 | > 0.128 | 0.986 | > 5.12 | 0.618 | 0.634 | 0.913 | > 20 | 0.974 | > 1
7 | CP66-MEL (melanoma, adherent) | 0.986 | > 10 | 0.984 | > 20 | 0.986 | > 0.128 | 0.944 | > 5.12 | 0.805 | 2.97 | 0.887 | > 20 | 0.153 | 0.00435
8 | CPC-N (small cell lung carcinoma, suspension) | 0.969 | > 10 | 0.853 | 17.9 | 0.983 | > 0.128 | 0.951 | > 5.12 | 0.607 | 0.632 | 0.937 | > 20 | 0.934 | > 1
9 | CTB-1 (B-cell lymphoma, suspension) | 0.952 | > 10 | 0.542 | 1.69 | 0.943 | > 0.128 | 0.598 | 0.654 | 0.786 |  | 0.945 | > 20 | 0.944 | > 1
10 | CTV-1 (acute myeloid leukaemia, suspension) | 0.954 | > 10 | 0.942 | > 20 | 0.979 | > 0.128 | 0.244 | 0.0708 | 0.732 | 1.21 | 0.859 | 11.6 | 0.975 | > 1
11 | CW-2 (large intestine, adherent) | 0.943 | > 10 | 0.929 | > 20 | 0.983 | > 0.128 | 0.989 | > 5.12 | 0.987 | > 5 | 0.964 | > 20 | 0.927 | > 1
12 | Calu-6 (lung adenocarcinoma, adherent) | 0.928 | > 10 | 0.858 | > 20 | 0.984 | > 0.128 | 0.771 | 2.25 | 0.88 | > 5 | 0.898 | > 20 | 0.201 | 0.00696
13 | D-247MG (glioma, adherent) | 0.962 | > 10 | 0.932 | > 20 | 0.784 | 0.0768 | 0.786 | 3.14 | 0.819 | 4.32 | 0.871 | > 20 | 0.621 | 0.152
14 | D-263MG (glioma, adherent) | 0.958 | > 10 | 0.974 | > 20 | 0.983 | > 0.128 | 0.761 | 2.18 | 0.844 | 4.73 | 0.955 | > 20 | 0.331 | 0.019
15 | D-283MED (medulloblastoma, adherent) | 0.976 | > 10 | 0.991 | > 20 | 0.991 | > 0.128 | 0.841 | 3.1 | 0.825 | 2.65 | 0.944 | > 20 | 0.99 | > 1
16 | D-336MG (glioma, adherent) | 0.947 | > 10 | 0.968 | > 20 | 0.973 | > 0.128 | 0.568 | 0.516 | 0.956 | > 5 | 0.86 | > 20 | 0.799 | 0.646
17 | D-392MG (glioma, adherent) | 0.901 | > 10 | 0.913 | > 20 | 0.948 | > 0.128 | 0.673 | 1.17 | 0.919 | > 5 | 0.913 | > 20 | 0.608 | 0.138
